The list shows a part of the results. At the low end of the ranking the order means little.

The assay deals with GST-SBP-SLBP (stem-loop binding protein) (UniProt Q14493). The assay can be described thus: targeted RNA Bind-n-Seq.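 Further: DESeq read counts versus GST-SBP nonspecific binding control pulldown.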 To be noted: RBNS binding buffer: 25 mM Tris pH 7.5, 150 mM KCl, 3 mM MgCl2, 0.1% Tween, 0.5 mg/mL BSA, 1 mM DTT; 27 nM protein, 750 pM RNA pool; temperature not stated; high values mean tight binding.
“GGUCACGUCUCAAUCAACUCAUCGGCCAGGGAAAUCCCUGGGAAUUUCAACAGCUCGCAGUCAAG”: the binding signal (log2 fold change) is -0.0556.
Consider “GGUCACGUCUCAAUCAACUCAAACGAGGGGGGGAAAACCCCUUUACCCUCACUAUCAACAGCUCGCAGUCAAG”, for which the binding signal (log2 fold change) was -0.209.
On to “GGUCACGUCUCAAUCAACUCAUCCCCCAGGGAAAACCCUGGUUUUUUCAACAGCUCGCAGUCAAG”, for which the binding signal (log2 fold change) was -0.202.
With “GGUCACGUCUCAAUCAACUCUUCCCCAGGAGUUUACUCCUGCUUAUUCAACAGCUCGCAGUCAAG”, the binding signal (log2 fold change) was -0.234.
“GGUCACGUCUCAAUCAACUCAUCCUCCAGGGAAAGCCCUGGUAAAUUCAACAGCUCGCAGUCAAG”: the binding signal (log2 fold change) was found to be 0.131.
For the sequence “GGUCACGUCUCAAUCAACUCUUACGAGGGGGGGAAAACCCCUUUACCCUCACUAUCAACAGCUCGCAGUCAAG”, the binding signal (log2 fold change) was found to be 0.219.
Regarding “GGUCACGUCUCAAUCAACUCUCUAGAGGGGGGGAAAACCCCUUUGCCCUCCACUUCAACAGCUCGCAGUCAAG”, the binding signal (log2 fold change) is -0.08.
Consider “GGUCACGUCUCAAUCAACUCAAGUCCCAGGGAAAGCCCUGGCAAUUUCAACAGCUCGCAGUCAAG”, for which the binding signal (log2 fold change) is -0.06.
For the sequence “GGUCACGUCUCAAUCAACUCAUCUCCAGGAGUUUUCUCCUGCUAUUUCAACAGCUCGCAGUCAAG”, the binding signal (log2 fold change) was 0.174.
As to “GGUCACGUCUCAAUCAACUCAGUCUCCAGGGAAAUCCCUGGCAUAUUCAACAGCUCGCAGUCAAG”, the binding signal (log2 fold change) turned out to be 0.0224.
Regarding “GGUCACGUCUCAAUCAACUCAAACGAGGGGGGGAAAACCCCUUUACCCUCAUCAUCAACAGCUCGCAGUCAAG”, the binding signal (log2 fold change) was 0.172.
As to “GGUCACGUCUCAAUCAACUCUUUUGCAGGAGUUUCCUCCUGGUAUUUCAACAGCUCGCAGUCAAG”, the binding signal (log2 fold change) was -0.0916.
The figure for “GGUCACGUCUCAAUCAACUCUAUUCCCAGGGAAACCCCUGGUAUAUUCAACAGCUCGCAGUCAAG” is 0.249; for “GGUCACGUCUCAAUCAACUCCCCAGAGGGGGGGAAAACCCCUUUACCCUCAAUAUCAACAGCUCGCAGUCAAG” it is -0.38; for “GGUCACGUCUCAAUCAACUCAUUCGAGGGGGGGAAAACCCCUUUACCCUCACCGUCAACAGCUCGCAGUCAAG” it is -0.116.
Consider “GGUCACGUCUCAAUCAACUCAACUCCCAGGGAAAGCCCUGGCUAACUCAACAGCUCGCAGUCAAG”, for which the binding signal (log2 fold change) is -0.0981.
For “GGUCACGUCUCAAUCAACUCUCCCGAGGGGGGGAAAACCCCUUUGCCCUCAACAUCAACAGCUCGCAGUCAAG”, the binding signal (log2 fold change) is -0.169.
For the sequence “GGUCACGUCUCAAUCAACUCAUCCCCCAGGGAAAGCCCUGGCAAUCUCAACAGCUCGCAGUCAAG”, the binding signal (log2 fold change) is -0.00118.
Turning to “GGUCACGUCUCAAUCAACUCAAUUUCAGGAGUUUCCUCCUGUAUUCUCAACAGCUCGCAGUCAAG”, the binding signal (log2 fold change) stood at 0.173.
On to “GGUCACGUCUCAAUCAACUCAUCCUCCAGGGAAAACCCUGGCUUUCUCAACAGCUCGCAGUCAAG”, for which the binding signal (log2 fold change) was -0.00496.
On to “GGUCACGUCUCAAUCAACUCUUUUCCAGGAGUUUUCUCCUGCUAAUUCAACAGCUCGCAGUCAAG”, for which the binding signal (log2 fold change) is 0.0626.
To “GGUCACGUCUCAAUCAACUCUUUUCCCAGGGAAAUCCCUGGUAUAUUCAACAGCUCGCAGUCAAG” belongs 0.0879; to “GGUCACGUCUCAAUCAACUCACACGAGGGGGGGAAAACCCCUUUACCCUCACCUUCAACAGCUCGCAGUCAAG”, -0.308; to “GGUCACGUCUCAAUCAACUCUAUUUCCAGGGAAAACCCUGGCGUAUUCAACAGCUCGCAGUCAAG”, -0.105.
In the case of “GGUCACGUCUCAAUCAACUCAUAAGAGGGGGGGAAAACCCCUUUACCCUCGUAAUCAACAGCUCGCAGUCAAG”, the binding signal (log2 fold change) was -0.247.
“GGUCACGUCUCAAUCAACUCUAUAGAGGGGGGGAAAACCCCUUUACCCUCCUUAUCAACAGCUCGCAGUCAAG”: the binding signal (log2 fold change) amounted to 0.246.
Take “GGUCACGUCUCAAUCAACUCAAUCCCCAGGGAAACCCCUGGUUUACUCAACAGCUCGCAGUCAAG”: the binding signal (log2 fold change) is -0.0384.
For the sequence “GGUCACGUCUCAAUCAACUCUUUUUCCAGGGAAACCCCUGGUAUAUUCAACAGCUCGCAGUCAAG”, the binding signal (log2 fold change) worked out at 0.0376.
As for “GGUCACGUCUCAAUCAACUCAAUUCCCAGGGAAAUCCCUGGUAUUUUCAACAGCUCGCAGUCAAG”, the binding signal (log2 fold change) was -0.0802.
With “GGUCACGUCUCAAUCAACUCAUCUCCCAGGGAAAUCCCUGGUAAUUUCAACAGCUCGCAGUCAAG”, the binding signal (log2 fold change) is -0.142.
“GGUCACGUCUCAAUCAACUCAUCCUCCAGGGAAAUCCCUGGCAUAUUCAACAGCUCGCAGUCAAG”: the binding signal (log2 fold change) amounted to 0.0753.
“GGUCACGUCUCAAUCAACUCUAUUUCCAGGGAAAACCCUGGCAUACUCAACAGCUCGCAGUCAAG”: the binding signal (log2 fold change) is -0.148.
With “GGUCACGUCUCAAUCAACUCUAUUCCAGGAGUUUCCUCCUGCUUAUUCAACAGCUCGCAGUCAAG”, the binding signal (log2 fold change) was found to be 0.156.
With “GGUCACGUCUCAAUCAACUCAUCCUCCAGGGAAACCCCUGGCUAUCUCAACAGCUCGCAGUCAAG”, the binding signal (log2 fold change) amounted to 0.3.
Take “GGUCACGUCUCAAUCAACUCUUUCUCCAGGGAAAGCCCUGGUAAUCUCAACAGCUCGCAGUCAAG”: the binding signal (log2 fold change) was 0.00552.
To “GGUCACGUCUCAAUCAACUCAAUCUCCAGGGAAAUCCCUGGCAAACUCAACAGCUCGCAGUCAAG” belongs 0.221.
To “GGUCACGUCUCAAUCAACUCAUUUUCAGGAGUUUCCUCCUGCUUUUUCAACAGCUCGCAGUCAAG” belongs -0.0574.

Values taken from paper PMC5892938.
